Some of the results follow.
These sequences were tested on PfAP2-HC AP2 domain (GST-tagged) (assay: gcPBM binding intensity (ln(normalized median fluorescence intensity)); higher = stronger DNA binding).
Method in brief: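 The binding buffer was 1× PBS containing 1% milk, 0.2 mg/ml BSA, 0.5% salmon testes DNA and 0.03% Triton X-100. In it, GST-tagged P. falciparum DNA-binding domains expressed in E. coli were applied for 1 h to an Agilent 4 × 180k array of primer-extended double-stranded 36-bp intergenic genomic probes plus negative controls. Binding intensity, read with Alexa488 anti-GST antibody and a 488 nm scan, is the highest Masliner-normalised natural-log median intensity across replicate spots of either probe orientation.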

| Sequence | gcPBM binding intensity (ln) |
| --- | --- |
| TTTTATGCGCAATAAGTGCATTTAAAATATATATAT | 9.44 |
| TCCACTTAACTCAATTGTACAAAAATAAAAATTAAA [XGTACX_site855] | 9.41 |
| ATAATATATATATATATATTATCAAATATATATATA [GTGCAC_negctrl_site346] | 9.52 |
| ATACGAAGAAATGTTCATTTATTTCGAACATTTAAT [CACACA_negctrl_site1481] | 9.52 |
| TTTTTCATAAAACACACACACAAAAATAATGTGGAA [CACACA_site3687] | 10 |
| AATATAATATAATATAGTACGTAAAAATATTATACA [XGTACX_site2170] | 10 |
| GTATTAATATATAATTGTACTTTTTTTTTTTTTTTT [XGTACX_site4369] | 9.53 |
| AATAATGAATTGAAATGTACATATTTTTATTAATAC [XGTACX_site8899] | 9.67 |
| TTTTTATATTTTACATGTACATAAATATATTATATA [XGTACX_site958] | 9.72 |
| ATCACCAAATGGGCTATACAACAATGAGAAATGGTA [CACACA_negctrl_site48] | 9.47 |
| TTCACATGAAGAATTAAAATAAAACTAGGAAATTAA [CACACA_negctrl_site1047] | 9.47 |
| TTCATATAATTCATCTGTACATATTGATAGTATGCA [XGTACX_site6386] | 9.61 |
| TGTTTTATTTATTAAGCACACGCGATTTAAAAAATA [CACACA_site981] | 9.37 |
| TCAAATGTGTAATCTTGTACACATTAAAAGAAAAAA [XGTACX_site8822] | 9.65 |
| AATAATATATGGACATGTACATAATATATATTTTTT [XGTACX_site312] | 9.81 |
| AAGAAAAAGAATAACCTTATTTCTATATACTAATTT [TGCATGCA_negctrl_site477] | 9.48 |
| ATCAAAATTGTCATTACACACCTTTATTTTTATAAT [CACACA_site5071] | 9.82 |
| TTTGTTCTTTTTGAAGTGCACTGAAATATAACAAAA | 9.3 |
| AAAAAAACACACACATATATATATATATATATATAT [GTGCAC_negctrl_site498] | 10.3 |
| TAATATATTAATATATGTACGTATTTTTATTAATAT [XGTACX_site5346] | 9.65 |
| TTAAATAATTCTTTTAGTACACACGAATAAGCAGAT [XGTACX_site623] | 9.69 |
| TATCTTATATATAAGTGTACGCAGATTCTTACGATA [XGTACX_site6058] | 9.43 |
| ATAATTAATGATGTATGTACGGAATTTATATATTTG [XGTACX_site5685] | 9.77 |

| Sequence | gcPBM binding intensity (ln) |
| --- | --- |
| ATAGTAATAGAATGATTGCACTTAAATTTTCCCTCT | 9.62 |
| GTATACATATTTATAATAATAAATGTCTTATATTTT [CACACA_negctrl_site688] | 9.67 |
| ATATATCAAATAGACAAACACACAAAGGAAGAGTGA [CACACA_site3922] | 10.2 |
| TATGTATTAATGAGAACATGCAAAATAATAAACAAT [TGCATGCA_site362] | 9.75 |
| CACAGACACGGACACACACACACACCCAGACACATA [CACACA_site4357] | 11.6 |
| CATATACACGAACACACACACACACGCACAAAAAAA [CACACA_site6376] | 10.6 |
| ATATATATATATATATGTACATATGTCAACTGTCTA [XGTACX_site8636] | 10.5 |
| CATACATACAAACACACACACATATATATACATACA [CACACA_site852] | 11.4 |
| ATTTATTTTAAATAAGTGCAAAATGGTTATAAATAA | 9.6 |
| AAAATTTCAATAAATACACACATATAAATATAGATT [CACACA_site6893] | 9.83 |
| ATAAATATTTTGTAAGCATGCTTTTAAAAAAAGAAA [TGCATGCA_site572] | 9.28 |
| ATGTACTATAGGCACACACACTCACATATATATATA [CACACA_site5745] | 10.4 |
| AAATAGTTGTTAAAGGTGCACAATATGGATATAAGA | 9.98 |
| TGAAAATATATAACGCGTACAAAAAGGAAATACAAT [XGTACX_site3534] | 9.89 |
| TTTTTTTTTTTTTTTGCATGTTGAAAATAAAATTAT [TGCATGCA_site86] | 9.03 |
| GGAATAACCAGACACACACACACATATAAATATGTA [CACACA_site7632] | 11.2 |
| TAAATACAAGAACTGACACACATACATACTACATTT [CACACA_site5561] | 10.5 |
| GGAAAAAAATAAAATAAGTATTTTACATACATATTG [TGCATGCA_negctrl_site10] | 9.49 |
| ATATATTTTTATATAGTGCAAGTAATAAAAAGGAAT | 9.78 |
| ATAACATTCAAAAAATGTACAAACATATGAATAAAT [XGTACX_site7013] | 9.79 |
| ATATCATTTTATTTGTGTACTTAAAAAGTTGCAATG [XGTACX_site4099] | 9.56 |
| AAAACTTTTTTAACAGAAAAATAGGGATACAATATA [CACACA_negctrl_site1708] | 9.57 |
| TTTTTATATTTATATAAATAAAAAAATAACAAAATG [XGTACX_negctrl_site231] | 9.46 |

| Sequence | gcPBM binding intensity (ln) |
| --- | --- |
| TACCTATACAGACACACACACACACGCCCACAAAAA [CACACA_site6375] | 11.1 |
| TGAACATACATCAAAAGTACAAACTCGCATGTTATA [XGTACX_site3320] | 9.67 |
| CTCCATATTAGACACACACACAAATGAAAAAAATAT [CACACA_site7420] | 10.2 |
| TAAAATTAAACAAAAAAAAAGAAAAAAAAAAAAAAG [CACACA_negctrl_site1098] | 9.51 |
| TTTTGGTATACGTAATTATATAATATGTTAATCAAT [CACACA_negctrl_site645] | 9.61 |
| AATATTCTATATGATACATGCATGATGGAATAAAAA [TGCATGCA_site980] | 9.77 |
| AATGTAGACACATATGTACACACATATATATGTATA [CACACA_site9014] | 10.1 |
| AAAAAAAACAGACACACACACATAAATATAAATAAA [CACACA_site6214] | 10.5 |
| TTTTTAAAAAGTAACACACACTCTTATATATAATGA [CACACA_site3618] | 10 |
| TATACATATATATATATATATAGATATATTCACGTG [XGTACX_negctrl_site265] | 9.61 |
| AAAATAATAATAAATGCATGTGTTGTTTACTAAGAA [TGCATGCA_site528] | 9.92 |
| ATATATATATATATATGTACTTAATGTTATTATATA [XGTACX_site4508] | 9.59 |
| TGTTCAGTATTGCACACACACAACAAAATAAAAAAA [CACACA_site6314] | 10.2 |
| GAAATGTGATAATATACACACACGCATATATATATA [CACACA_site4332] | 10.2 |
| ATTATATATATATTATGTACATATATTGAAGTGGAT [XGTACX_site5916] | 9.74 |
| ACGGATTAAAAAATGTGTACGCACAAAAAAAAAAAT [XGTACX_site8259] | 9.93 |
| TACGAAATCATATGTACACACACATATATATATATA [CACACA_site5216] | 9.96 |
| TTTTTAATCCTTTGCGCATGTAAAATTATATATTTT [TGCATGCA_site306] | 9.72 |
| TATATATATATGTGTACACAAAAAATATTATATTAT [CACACA_site5505] | 9.76 |
| ATTCTATTTTTAAGTACACACATATATATATATATA [CACACA_site3658] | 9.78 |
| ACATAATTATTATGCACACATATTTTTATGTATTTA [CACACA_site698] | 10 |
| ATACTTTATTAATATTGTACAAAATAAGAAAAAAAA [XGTACX_site310] | 9.67 |
| ACATAAAAATTATGCACACTTAATAAAGCGAAATGT [CACACA_site3183] | 9.85 |

| Sequence | gcPBM binding intensity (ln) |
| --- | --- |
| CACAACAGGGTTGAGGTGCGTAAAAATAGTAGAATA [GTGCAC_site9523] | 9.59 |
| TTTTGAAGTAATACATGTACTTAAATTACTAAAAAA [XGTACX_site1955] | 9.47 |
| ACTTTGCGTTAAAAGAGTACATAATATTTTTTTTTT [XGTACX_site7533] | 9.46 |
| TAATGGTGTTCATGTGGTACACTTTATAAATTGGCA [XGTACX_site729] | 9.49 |
| TTGAAAATTCTTAAGGCACACACATATATAATATAT [CACACA_site8088] | 9.99 |
| GCTTATTTTAATTCTTGTACTTATTTATATACAAAT [XGTACX_site2099] | 9.81 |
| AAACTAACTCTAACATGTACATATATATATATATAT [XGTACX_site6949] | 9.74 |
| ATCACAAAAAAGTTCATACACACAACCTATTTATAT [CACACA_site2888] | 10 |
| AAATCAAATTTTTAGAGTACTTAAGTTTTCTATATA [XGTACX_site7827] | 9.36 |
| TCCCCATATGTTTTGTGTACATATATATTTTTTTGT [XGTACX_site75] | 10.1 |
| TAATATATTAATATATGTACATATTTATATATCTAC [XGTACX_site7117] | 9.81 |
| ATAAAGTCTATATTATGTACATATAATATAAATATT [XGTACX_site6703] | 9.57 |
| GAACATTACGTAAATAAATAAATAAAAATAAATACA [XGTACX_negctrl_site25] | 9.85 |
| AAAAAACTTCACATATGTACTTAAAAAAAATTAAAA [XGTACX_site2368] | 9.43 |
| TATTGTCTTGTATATGCATGTAGACCAAATATGTAA [TGCATGCA_site9] | 9.29 |
| CAAAAAAAAATCTGTAGTACTTATTAATATTGCTGT [XGTACX_site4767] | 9.58 |
| ATATATGGAAAGAGTAGTACTATTATAGGGGTGTTA [XGTACX_site6785] | 9.86 |
| TGATTATTATAATTTAGTACATAATATTTTATATAA [XGTACX_site6125] | 9.46 |
| CAAGGAACCAGACACACACACATAAATGTATATATA [CACACA_site752] | 10.2 |
| AAAACAAAAGAATTCACACATATATATATATATATA [CACACA_site4777] | 10.2 |
